{
  "source": "the supplement of paper PMC7826260",
  "note": "The list shows a part of the results. Viral Rep nickase domains cut single-stranded DNA in vitro for 1 h at 37 °C with 3 µM enzyme; only the middle of the 90-letter strands is printed. The score is log2 (uncut reads / reads without enzyme); uncut sequences lie near 0, cut ones below; no hit call is given. Shares of all reads are compared; values above 0 arise when much of the pool is cut.",
  "data": [
    {"system": "T1, Rep nickase domain of Muscovy duck circovirus", "T1 sequence (protein, residues 1-111, tag omitted)": "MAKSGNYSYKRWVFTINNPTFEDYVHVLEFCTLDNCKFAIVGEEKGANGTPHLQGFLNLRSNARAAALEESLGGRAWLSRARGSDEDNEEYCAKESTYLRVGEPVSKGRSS", "test": "uncleaved DNA left, log2 of reads against the no-enzyme library (log2 ratio); higher = less cleavage (more negative = more Rep cleavage of the k-mer); sequences stand for … in CTCGTCCG…ACCGGAGA", "experimental": "(§1)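 A pool of 90-nt single-stranded DNAs with seven random bases just before the constant AC of the nick site (name = the seven bases) was cut by 3 µM recombinant His6-SUMO-tagged Rep nickase domain (300 nM DNA, 50 mM HEPES pH 8.0, 50 mM NaCl, 1 mM MnCl2, 1 h, 37 °C, three replicates). Uncut DNA was amplified and sequenced.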", "values": [
      {"sequence": "AGGCAAC", "uncleaved DNA left (log2)": 0.117},
      {"sequence": "TATATTT", "uncleaved DNA left (log2)": -2.71},
      {"sequence": "TCTCGCG", "uncleaved DNA left (log2)": 0.0797},
      {"sequence": "GTGCCTA", "uncleaved DNA left (log2)": 0.0419},
      {"sequence": "GACACAG", "uncleaved DNA left (log2)": 0.028},
      {"sequence": "TGTGACA", "uncleaved DNA left (log2)": 0.0948},
      {"sequence": "TCGTCGT", "uncleaved DNA left (log2)": -0.117},
      {"sequence": "CCCATTC", "uncleaved DNA left (log2)": 0.0136},
      {"sequence": "TTTTATT", "uncleaved DNA left (log2)": -3.52},
      {"sequence": "ATTAGAG", "uncleaved DNA left (log2)": 0.00353},
      {"sequence": "GTGGTCT", "uncleaved DNA left (log2)": -0.0449},
      {"sequence": "AGTATAT", "uncleaved DNA left (log2)": 0.146},
      {"sequence": "CGAGTCC", "uncleaved DNA left (log2)": -0.0467},
      {"sequence": "TCCAATT", "uncleaved DNA left (log2)": 0.106},
      {"sequence": "AAGGCGA", "uncleaved DNA left (log2)": -0.00624},
      {"sequence": "TCAGAGT", "uncleaved DNA left (log2)": 0.181},
      {"sequence": "TTGCTGG", "uncleaved DNA left (log2)": 0.123},
      {"sequence": "TAGCTAT", "uncleaved DNA left (log2)": 0.0318},
      {"sequence": "TATAAGA", "uncleaved DNA left (log2)": -0.0659},
      {"sequence": "AGTGTGT", "uncleaved DNA left (log2)": 0.147},
      {"sequence": "GGTATCG", "uncleaved DNA left (log2)": -0.0474},
      {"sequence": "CGAGTAG", "uncleaved DNA left (log2)": -0.169},
      {"sequence": "TCGTTCT", "uncleaved DNA left (log2)": -0.878},
      {"sequence": "TGAATAC", "uncleaved DNA left (log2)": -0.0296},
      {"sequence": "CCAATTG", "uncleaved DNA left (log2)": 0.0239},
      {"sequence": "ATCAGTG", "uncleaved DNA left (log2)": 0.0381},
      {"sequence": "TTGCGGA", "uncleaved DNA left (log2)": 0.102},
      {"sequence": "TTGTCAG", "uncleaved DNA left (log2)": 0.0931},
      {"sequence": "AGGGCTA", "uncleaved DNA left (log2)": 0.00303},
      {"sequence": "TAGCGGT", "uncleaved DNA left (log2)": 0.00858},
      {"sequence": "ATGTGTT", "uncleaved DNA left (log2)": -3.16},
      {"sequence": "CCTGAAA", "uncleaved DNA left (log2)": 0.131},
      {"sequence": "TTTCTCT", "uncleaved DNA left (log2)": 0.00456},
      {"sequence": "GGTCTCC", "uncleaved DNA left (log2)": 0.0356},
      {"sequence": "TGTAAGG", "uncleaved DNA left (log2)": 0.0619},
      {"sequence": "GCAGTCA", "uncleaved DNA left (log2)": -0.0809},
      {"sequence": "AAGATAT", "uncleaved DNA left (log2)": 0.0208},
      {"sequence": "AGATTAT", "uncleaved DNA left (log2)": -0.475},
      {"sequence": "GCAGTGC", "uncleaved DNA left (log2)": 0.0285},
      {"sequence": "GCGTCAC", "uncleaved DNA left (log2)": 0.0431}
    ]},
    {"system": "T2, Rep nickase domain of banana bunchy top virus", "T2 sequence (protein, residues 1-94, tag omitted)": "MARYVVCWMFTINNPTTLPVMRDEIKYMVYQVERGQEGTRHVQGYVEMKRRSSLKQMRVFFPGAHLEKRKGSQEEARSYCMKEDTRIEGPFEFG", "test": "uncleaved DNA left, log2 of reads against the no-enzyme library (log2 ratio); higher = less cleavage (more negative = more Rep cleavage of the k-mer); sequences stand for … in CTCGTCCG…ACCGGAGA", "experimental": "as §1", "values": [
      {"sequence": "AGGCAAC", "uncleaved DNA left (log2)": 0.0244},
      {"sequence": "TATATTT", "uncleaved DNA left (log2)": -3.41},
      {"sequence": "TCTCGCG", "uncleaved DNA left (log2)": -0.141},
      {"sequence": "GTGCCTA", "uncleaved DNA left (log2)": 0.161},
      {"sequence": "GACACAG", "uncleaved DNA left (log2)": 0.0674},
      {"sequence": "TGTGACA", "uncleaved DNA left (log2)": 0.0119},
      {"sequence": "TCGTCGT", "uncleaved DNA left (log2)": 0.00719},
      {"sequence": "CCCATTC", "uncleaved DNA left (log2)": -0.044},
      {"sequence": "TTTTATT", "uncleaved DNA left (log2)": -3.38},
      {"sequence": "ATTAGAG", "uncleaved DNA left (log2)": 0.0222},
      {"sequence": "GTGGTCT", "uncleaved DNA left (log2)": -0.183},
      {"sequence": "AGTATAT", "uncleaved DNA left (log2)": 0.108},
      {"sequence": "CGAGTCC", "uncleaved DNA left (log2)": 0.0263},
      {"sequence": "TCCAATT", "uncleaved DNA left (log2)": -0.147},
      {"sequence": "AAGGCGA", "uncleaved DNA left (log2)": -0.116},
      {"sequence": "TCAGAGT", "uncleaved DNA left (log2)": 0.189},
      {"sequence": "TTGCTGG", "uncleaved DNA left (log2)": -0.0254},
      {"sequence": "TAGCTAT", "uncleaved DNA left (log2)": -0.00345},
      {"sequence": "TATAAGA", "uncleaved DNA left (log2)": -0.0317},
      {"sequence": "AGTGTGT", "uncleaved DNA left (log2)": -0.0063},
      {"sequence": "GGTATCG", "uncleaved DNA left (log2)": -0.0725},
      {"sequence": "CGAGTAG", "uncleaved DNA left (log2)": -0.024},
      {"sequence": "TCGTTCT", "uncleaved DNA left (log2)": -0.15},
      {"sequence": "TGAATAC", "uncleaved DNA left (log2)": 0.0221},
      {"sequence": "CCAATTG", "uncleaved DNA left (log2)": -0.0359},
      {"sequence": "ATCAGTG", "uncleaved DNA left (log2)": 0.0726},
      {"sequence": "TTGCGGA", "uncleaved DNA left (log2)": -0.0899},
      {"sequence": "TTGTCAG", "uncleaved DNA left (log2)": 0.128},
      {"sequence": "AGGGCTA", "uncleaved DNA left (log2)": 0.0401},
      {"sequence": "TAGCGGT", "uncleaved DNA left (log2)": -0.036},
      {"sequence": "ATGTGTT", "uncleaved DNA left (log2)": -1.51},
      {"sequence": "CCTGAAA", "uncleaved DNA left (log2)": 0.0312},
      {"sequence": "TTTCTCT", "uncleaved DNA left (log2)": 0.00325},
      {"sequence": "GGTCTCC", "uncleaved DNA left (log2)": 0.0514},
      {"sequence": "TGTAAGG", "uncleaved DNA left (log2)": -0.0597},
      {"sequence": "GCAGTCA", "uncleaved DNA left (log2)": 0.0584},
      {"sequence": "AAGATAT", "uncleaved DNA left (log2)": -0.000671},
      {"sequence": "AGATTAT", "uncleaved DNA left (log2)": 0.108},
      {"sequence": "GCAGTGC", "uncleaved DNA left (log2)": -0.0605},
      {"sequence": "GCGTCAC", "uncleaved DNA left (log2)": 0.112}
    ]},
    {"system": "T3, Rep nickase domain of cabbage leaf curl virus", "T3 sequence (protein, residues 1-116, tag omitted)": "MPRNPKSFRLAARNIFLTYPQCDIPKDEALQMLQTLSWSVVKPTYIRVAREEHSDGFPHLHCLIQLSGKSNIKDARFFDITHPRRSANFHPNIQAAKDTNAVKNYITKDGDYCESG", "test": "uncleaved DNA left, log2 of reads against the no-enzyme library (log2 ratio); higher = less cleavage (more negative = more Rep cleavage of the k-mer); sequences stand for … in CTCGTCCG…ACCGGAGA", "experimental": "as §1", "values": [
      {"sequence": "AGGCAAC", "uncleaved DNA left (log2)": 0.235},
      {"sequence": "TATATTT", "uncleaved DNA left (log2)": -2.3},
      {"sequence": "TCTCGCG", "uncleaved DNA left (log2)": -0.665},
      {"sequence": "GTGCCTA", "uncleaved DNA left (log2)": 0.367},
      {"sequence": "GACACAG", "uncleaved DNA left (log2)": -0.265},
      {"sequence": "TGTGACA", "uncleaved DNA left (log2)": 0.532},
      {"sequence": "TCGTCGT", "uncleaved DNA left (log2)": -0.335},
      {"sequence": "CCCATTC", "uncleaved DNA left (log2)": -0.225},
      {"sequence": "TTTTATT", "uncleaved DNA left (log2)": -1.02},
      {"sequence": "ATTAGAG", "uncleaved DNA left (log2)": -0.68},
      {"sequence": "GTGGTCT", "uncleaved DNA left (log2)": 0.569},
      {"sequence": "AGTATAT", "uncleaved DNA left (log2)": 0.298},
      {"sequence": "CGAGTCC", "uncleaved DNA left (log2)": 0.212},
      {"sequence": "TCCAATT", "uncleaved DNA left (log2)": 0.00281},
      {"sequence": "AAGGCGA", "uncleaved DNA left (log2)": -0.665},
      {"sequence": "TCAGAGT", "uncleaved DNA left (log2)": 0.292},
      {"sequence": "TTGCTGG", "uncleaved DNA left (log2)": -0.395},
      {"sequence": "TAGCTAT", "uncleaved DNA left (log2)": -0.272},
      {"sequence": "TATAAGA", "uncleaved DNA left (log2)": -0.157},
      {"sequence": "AGTGTGT", "uncleaved DNA left (log2)": -0.11}
    ]}
  ]
}
